# Data published in article PMC4336329 (PLoS ONE, 2015).
# Screen size: about 310,000 compounds; about 2,200 (0.71%) showed an effect of 50% or more. Effects have a minus sign here. Some of the results follow.
# Biological target: human ether-à-go-go-related gene (hERG) potassium channel (human, UniProt Q12809)
# Assay: primary screen, population patch clamp on CHO cells stably expressing hERG
# human ether-à-go-go-related gene (hERG) potassium channel, sequence (Q12809 whole entry, looked up): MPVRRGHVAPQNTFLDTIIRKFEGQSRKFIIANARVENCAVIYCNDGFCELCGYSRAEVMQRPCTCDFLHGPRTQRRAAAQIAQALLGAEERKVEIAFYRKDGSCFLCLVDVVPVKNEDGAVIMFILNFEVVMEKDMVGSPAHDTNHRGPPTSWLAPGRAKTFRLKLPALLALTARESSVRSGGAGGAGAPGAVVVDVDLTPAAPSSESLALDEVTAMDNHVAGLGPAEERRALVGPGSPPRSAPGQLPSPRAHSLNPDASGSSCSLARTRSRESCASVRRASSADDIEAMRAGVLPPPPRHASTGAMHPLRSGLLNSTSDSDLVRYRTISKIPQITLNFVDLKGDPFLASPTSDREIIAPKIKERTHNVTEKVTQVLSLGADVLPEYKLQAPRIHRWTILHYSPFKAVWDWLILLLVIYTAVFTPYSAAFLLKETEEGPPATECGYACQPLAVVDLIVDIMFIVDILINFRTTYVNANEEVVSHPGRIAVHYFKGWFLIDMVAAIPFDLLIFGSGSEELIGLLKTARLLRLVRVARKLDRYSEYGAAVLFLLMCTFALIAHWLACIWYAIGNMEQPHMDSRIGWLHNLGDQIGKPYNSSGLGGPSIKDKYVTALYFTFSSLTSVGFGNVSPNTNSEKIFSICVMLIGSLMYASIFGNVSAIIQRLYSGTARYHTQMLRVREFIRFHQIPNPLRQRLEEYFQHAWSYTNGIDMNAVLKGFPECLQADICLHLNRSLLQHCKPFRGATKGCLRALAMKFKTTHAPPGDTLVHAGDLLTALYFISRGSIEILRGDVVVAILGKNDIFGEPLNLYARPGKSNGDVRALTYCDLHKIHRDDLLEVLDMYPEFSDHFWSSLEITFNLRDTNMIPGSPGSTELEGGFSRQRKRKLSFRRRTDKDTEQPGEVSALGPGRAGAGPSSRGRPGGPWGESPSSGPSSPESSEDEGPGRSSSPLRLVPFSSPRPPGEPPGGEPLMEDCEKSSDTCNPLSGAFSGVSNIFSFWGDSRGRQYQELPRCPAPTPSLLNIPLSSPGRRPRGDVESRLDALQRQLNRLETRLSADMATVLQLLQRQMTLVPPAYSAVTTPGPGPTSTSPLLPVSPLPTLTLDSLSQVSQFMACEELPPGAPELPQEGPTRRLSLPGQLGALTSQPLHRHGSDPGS
row,Compound,"hERG current change (%, negative = inhibition) at 1uM"
1,CC(C)(C)NC(=O)CCCSc1nc2ccccc2s1,0.265%
2,CC(C)C(NS(=O)(=O)c1ccccc1)C(=O)NC1CCCC1 (stereo not drawn),9.28%
3,CCC(C)[C@H](NC(=O)N1CC(=O)Nc2ccccc21)C(=O)N[C@H](Cc1ccccc1)C(=O)O (stereo partly drawn),5.12%
4,Cc1nn(-c2nc3ccccc3s2)c(N)c1Sc1ccc(F)cc1,12.5%
5,O=C(COC(=O)c1ccc2ccccc2n1)NCc1ccccc1,9.15%
6,Cn1c(NCCN2CCCCC2)cc(=O)n(C)c1=O,15.4%
7,CC(C)(C)n1nc2c(c1NC(=O)Cc1cccc3ccccc13)CS(=O)(=O)C2,2.73%
8,CCOc1nc(OCC)nc(-n2cc(-c3ccccc3)nn2)n1,13.7%
9,CC(Oc1ccc(-c2ccccc2)cc1)C(=O)O (stereo not drawn),15.5%
10,O=C(NCCCN1CCOCC1)c1cc(-c2ccc(Cl)c(Cl)c2)on1,0.781%
11,CC(C)c1nnc(NC(=O)c2cccs2)s1,11.3%
12,COc1ccc(CN2CC(C(=O)N3CCOCC3)CC2=O)cc1 (stereo not drawn),15.2%
13,O=C(Nc1ncccc1O)c1cccc(S(=O)(=O)N2CCc3ccccc32)c1,5.58%
14,O=C(CCC1CCCCC1)Nc1cccc(C(=O)Nc2ccc(C(=O)O)cc2)c1,18.4%
15,CCOC(=O)c1c(Nc2ccccc2OCCOC)n[nH]c1C,11.1%
16,CS(=O)(=O)Nc1ccc(C2=NN(S(C)(=O)=O)C(c3ccc4nccnc4c3)C2)cc1 (stereo not drawn),-6.03%
17,Cc1ccc(C(=O)COC(=O)c2cnccn2)cc1C,1.72%
18,COc1ccccc1C(=O)NC(=S)/C=C1/N(C)c2ccccc2C1(C)C,0.693%
19,O=C(O)c1ccc(N2CCCCC2)cc1O,11.3%
20,CCc1ccc(C(=O)COC(=O)[C@@H](NC(N)=O)[C@@H](C)CC)cc1,13.6%
21,COc1ccccc1NS(=O)(=O)c1ccc(NN=C2CCCC2)c([N+](=O)[O-])c1,10.3%
22,COCCSc1ccccc1C(=O)NCCCn1ccnc1,-10.6%

row,Compound,"hERG current change (%, negative = inhibition) at 1uM"
1,COc1ccc(C)cc1N(C(=O)c1ccco1)C(C(=O)NC1CCCC1)c1ccc(N2CCOCC2)cc1 (stereo not drawn),3.48%
2,COc1ccc(-c2csc3nc[nH]c(=O)c23)cc1OC,5.27%
3,CCOC(=O)c1ccc(N2C(=O)CC(N3CCCC(C)C3)C2=O)cc1 (stereo not drawn),7.58%
4,COc1ccccc1Nc1ccc(S(=O)(=O)N2CCCCC2)cc1[N+](=O)[O-],11.3%
5,Nc1nc(SCC(=O)Nc2ccc(OCc3ccccc3)cc2)n[nH]1,18.3%
6,O=C(O)C1=NN(c2ccccc2)C(=O)C1,10.7%
7,CCOC(=O)Nc1ccc(C(=O)c2ccncc2)cc1,15.9%
8,C[C@H](NC(=O)C1CCN(S(=O)(=O)c2ccccc2)CC1)C(=O)NCc1ccc(F)cc1,9.38%
9,Cn1nnnc1N=N/C(=N/Nc1ccccc1)c1ccccc1,10.1%
10,Cc1ccc(CNC(=O)c2cc(S(=O)(=O)N3CCCCC3)ccc2N2CCOCC2)cc1,3.62%
11,CC(CN1CCCCC1)OC(=O)c1ccccc1Cl.Cl (stereo not drawn),13.6%
12,CCOc1nc(C)cc(C)c1S(=O)(=O)c1cccc(C)c1,10.9%
13,Cc1cccc(CC2SC(N)=NC2=O)c1.Cl (stereo not drawn),8.97%
14,COc1ccccc1N1CCN(CCCNC(=O)Nc2ccccc2C)CC1,-3.8%
15,O=C(O)c1ccc2c(c1)C(=O)N(c1ncccn1)C2=O,7.75%
16,Cc1ccc(C(=O)CSc2nc3ccccc3c(=O)[nH]2)cc1C,15.4%
17,Cl.OC(COCC1COc2ccccc2O1)CN1CCc2ccccc2C1 (stereo not drawn),-28.1%
18,COc1cc2c(cc1OC)C(C)N(CC(=O)Nc1ccc(C)c(S(=O)(=O)N3CCOCC3)c1)CC2 (stereo not drawn),12.4%
19,COCCn1c(SCC(=O)NNC(=O)c2ccc(OC)c(OC)c2)nc2ccccc2c1=O,-3.69%
20,CN(Cc1ccccc1)S(=O)(=O)c1ccc(OCC(=O)N2CCC(C(N)=O)CC2)cc1,2.08%
21,Cl.OC(COc1ccc2ccccc2c1)CN1CCOCC1 (stereo not drawn),2.37%
22,COCc1cc(C)nc(OCC(=O)N/N=C/c2ccc(C)cc2)c1C#N,13.3%

row,Compound,"hERG current change (%, negative = inhibition) at 1uM"
1,COc1ccc(S(=O)(=O)CCC(=O)NCCc2cccc(C)c2)cc1,-3.81%
2,CC(=O)c1cccc(NC(=S)NC(=O)c2cccc(Cl)c2)c1,6.39%
3,Cc1ccc(/C=C2\SC(=S)N(CCCC(=O)N3CCOCC3)C2=O)cc1,-7.65%
4,Cc1cc(-c2c(C)[nH]n(-c3ccccc3)c2=O)n(-c2ccccc2)n1,2.93%
5,O=C(NCc1ccc(Cl)cc1)C1CCN(c2nnc(N3CCCC3=O)s2)CC1,11.6%
6,Cc1ccc(C)n1-c1sc2c(c1C(=O)O)CCCC2,10.9%
7,CCc1ccc(N2C(=O)NC(=O)C(Cc3ccc(OC)cc3OC)C2=O)cc1 (stereo not drawn),18.6%
8,COc1ccc(-c2csc3ncn(Cc4ccccc4)c(=O)c23)cc1,11.2%
9,COc1ccc(-n2c(O)c(/C=N/n3cnnc3)c3ccccc3c2=O)cc1,5.02%
10,COc1ccc(/C=N/NC(=O)c2ccccc2[N+](=O)[O-])cc1CN1CCc2cc(OC)c(OC)cc2C1C (stereo not drawn),-10.4%
11,COc1ccccc1C(C)NC(=O)CCOc1cccc(C)c1 (stereo not drawn),3.83%
12,CCc1cc(C(=O)N2CCN(c3ccccc3OC)CC2)sc1C,1.68%
13,COc1cc(C(Nc2ccccn2)c2ccc3ccc(C)nc3c2O)cc(OC)c1O (stereo not drawn),11.5%
14,CCN(CC)S(=O)(=O)c1ccc(N2CCOCC2)c(NC(=O)C23CC4CC(CC(Cl)(C4)C2)C3)c1,6.75%
15,COC(OC)C(C)NC(=O)NC(=O)c1ccccc1Cl (stereo not drawn),11.2%
16,CCC1=C(OC(=O)N(CC)CC)N2C(=O)OC(=NCC3CC3)[C@]2(Cc2ccccc2)[C@H]2C1=CC[C@H]1C(=O)NC(=O)[C@H]12,8.34%
17,COc1cc(CN2CCCC(CO)(Cc3ccccc3C)C2)cc2c1OCO2 (stereo not drawn),-0.303%
18,COC(=O)c1c(C)nc(C)c2c(=O)oc3ccccc3c12,2.75%
19,COc1ccc(-n2c(=O)cc(N3CCN(Cc4ccccc4)CC3)[nH]c2=O)cc1,11.1%
20,CC1=CC(=O)N(c2cccc(C(F)(F)F)c2)C1c1ccc(Cl)cc1 (stereo not drawn),-3.67%
21,CCCCNC(=O)CSc1nc2ccc(NC(=O)CSc3nnc(N)s3)cc2s1,11.1%
22,COc1ccc(CSc2nnc(-c3ccncc3)n2N)cc1,15.4%

row,Compound,"hERG current change (%, negative = inhibition) at 1uM"
1,COC(=O)c1ccc(Oc2coc3cc(OCc4cnn(-c5ccccc5)c4)ccc3c2=O)cc1,9.71%
2,COc1ccc(NC(=O)/C(=C\c2cc(OC)c(OC)cc2[N+](=O)[O-])NC(=O)c2ccccc2)cc1,12.9%
3,C/C(N)=C(/C#N)C(=O)CN1C(=O)NC(Cc2c[nH]c3ccccc23)C1=O (stereo not drawn),11.7%
4,O=C(NNS(=O)(=O)c1ccccc1)c1ccc(O)cc1,7.02%
5,CCN1C(=O)/C(=C2\C=Cc3ccccc3N2CC)SC1=S,12.1%
6,CCCCOC(=O)Nc1ccc(OC)cc1S(=O)(=O)N1CCOCC1,-5.36%
7,COc1ccc(C(CNC(=O)Cc2ccc(Cl)c(Cl)c2)N2CCCCC2)cc1 (stereo not drawn),-0.779%
8,CC(C)[C@@H](CSc1ccccc1)N1CCN(Cc2ccccc2)CCC1=O,-7.86%
9,COc1cc2cc(Oc3ccc4ccc(=O)oc4c3)c(=O)oc2cc1OC(=O)C=C(C)C,5.86%
10,CCOc1ccc(NC(=O)CC(NCc2ccccn2)C(=O)O)cc1 (stereo not drawn),27.3%
11,COC(=O)c1oc2ccc(Cl)cc2c1NC(C)=O,12.8%
12,CN1CCN(c2cc3c(cc2F)c(=O)c(C(=O)O)cn3CCF)CC1,13.1%
13,CCCN(CC(=O)Nc1ccccc1C)C(=O)c1ccc2[nH]c3c(c2c1)CC(C)CC3 (stereo not drawn),10.2%
14,COc1ccc(-n2nc3cc(C)c(N)cc3n2)cc1Cl,6.46%
15,CCOC(=O)/C(N=Nc1sc(C(=O)OCC)c(C)c1C(=O)OCC)=C(\C)O,2.16%
16,COc1cccc(NC(=S)NNC(=O)C(C)n2nc(C)c([N+](=O)[O-])c2C)c1 (stereo not drawn),9.18%
17,CC(NCC(O)COc1ccc(S(=O)(=O)N2CCOCC2)cc1)c1ccccc1 (stereo not drawn),-1.58%
18,CCn1c(SCC(=O)Nc2ccc(N3CCOCC3)cc2)nnc1-c1ccc(OC)cc1,-2.01%
19,CCc1nc(NCC2CCCN2CC)c2nnn(Cc3ccccc3F)c2n1 (stereo not drawn),-22.9%
20,COC(=O)C(Cc1c[nH]c2ccccc12)NC(=O)c1ccccc1Br (stereo not drawn),13.8%
21,COc1ccc(-c2cc(C(=O)N3CCN(C(=O)c4ccccc4F)CC3)[nH]n2)cc1,0.943%
